# Assay results as given in the supplement of paper PMC8728848.
# This is one part of the list.
# B1: GH98CBM (Clostridium perfringens) (protein)
# chain: EVYALEESRDVYLSDLDWLNATHGDDTKSKIVQKNHPFTPGNNNQSTKISLKMEDGSISEFEKGLGTIAGSPSTITYDISGAGVTKFFSYLGIDRSANPINEQYAKVDKIEVVVDGKVIYSTINQFPNGLTYETPAIKVDLNIPENAKRLQLKSYAGEKTWGDEVVYADAKFTAKGDFVN
# Assays:
# Experiment in all cases: glycan array binding signal (z-score within array); higher = stronger binding
# Conditions in all cases: glycan notation: IUPAC condensed, linker removed
# Fuc(a1-2)Gal = molecular target: Fuc(a1-2)Gal
# Summary of the method: (§1)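 Glycan array binding is given as a within-array Z-score, which can be read as non-binding when negative. The arrays, 3228 of them, came from the Consortium for Functional Glycomics database and were retained only where the protein sequence was available. Z-scores were averaged across arrays of the same protein sequence at different concentrations or buffers and across linkers.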
# Fuc(a1-2)Gal(b1-3)GalNAc = molecular target: Fuc(a1-2)Gal(b1-3)GalNAc
# Summary of the method: as §1
# [1] = molecular target: Fuc(a1-2)Gal(b1-3)GalNAc(b1-3)Gal
# Summary of the method: as §1
# [2] = molecular target: Fuc(a1-2)Gal(b1-3)GalNAc(b1-3)Gal(a1-4)Gal(b1-4)Glc
# Summary of the method: as §1
# [3] = molecular target: Fuc(a1-2)Gal(b1-3)GalNAc(b1-4)[Neu5Ac(a2-3)]Gal(b1-4)Glc
# Summary of the method: as §1
# Fuc(a1-2)Gal(b1-3)GlcNAc = molecular target: Fuc(a1-2)Gal(b1-3)GlcNAc
# Summary of the method: as §1
# [4] = molecular target: Fuc(a1-2)Gal(b1-3)GlcNAc(b1-3)Gal(b1-4)Glc
# Summary of the method: as §1
# [5] = molecular target: Fuc(a1-2)Gal(b1-3)[Fuc(a1-4)]GlcNAc
# Summary of the method: as §1
# Fuc(a1-2)Gal(b1-4)Glc = molecular target: Fuc(a1-2)Gal(b1-4)Glc
# Summary of the method: as §1
# Fuc(a1-2)Gal(b1-4)Glc6S = molecular target: Fuc(a1-2)Gal(b1-4)Glc6S
# Summary of the method: as §1
# Fuc(a1-2)Gal(b1-4)GlcNAc = molecular target: Fuc(a1-2)Gal(b1-4)GlcNAc
# Summary of the method: as §1
# [6] = molecular target: Fuc(a1-2)Gal(b1-4)GlcNAc(b1-3)Gal(b1-4)GlcNAc
# Summary of the method: as §1
# [7] = molecular target: Fuc(a1-2)Gal(b1-4)GlcNAc(b1-3)Gal(b1-4)GlcNAc(b1-3)Gal(b1-4)GlcNAc
# Summary of the method: as §1
# [8] = molecular target: Fuc(a1-2)Gal(b1-4)GlcNAc6S
# Summary of the method: as §1
# [9] = molecular target: Fuc(a1-2)Gal(b1-4)[Fuc(a1-3)]GlcNAc
# Summary of the method: as §1
# [10] = molecular target: Fuc(a1-2)Gal(b1-4)[Fuc(a1-3)]GlcNAc(b1-3)Gal(b1-4)[Fuc(a1-3)]GlcNAc
# Summary of the method: as §1
# [11] = molecular target: Fuc(a1-2)Gal(b1-4)[Fuc(a1-3)]GlcNAc(b1-3)Gal(b1-4)[Fuc(a1-3)]GlcNAc(b1-3)Gal(b1-4)[Fuc(a1-3)]GlcNAc
# Summary of the method: as §1
# Fuc(a1-2)Gal6S(b1-4)Glc = molecular target: Fuc(a1-2)Gal6S(b1-4)Glc
# Summary of the method: as §1
# [12] = molecular target: Fuc(a1-2)Gal6S(b1-4)Glc6S
# Summary of the method: as §1
# [13] = molecular target: Fuc(a1-2)Gal6S(b1-4)GlcNAc
# Summary of the method: as §1
# Fuc(a1-2)[Gal(a1-3)]Gal = molecular target: Fuc(a1-2)[Gal(a1-3)]Gal
# Summary of the method: as §1
# [14] = molecular target: Fuc(a1-2)[Gal(a1-3)]Gal(b1-3)GlcNAc
# Summary of the method: as §1
# [15] = molecular target: Fuc(a1-2)[Gal(a1-3)]Gal(b1-4)Glc
# Summary of the method: as §1
# [16] = molecular target: Fuc(a1-2)[Gal(a1-3)]Gal(b1-4)GlcNAc
# Summary of the method: as §1
# [17] = molecular target: Fuc(a1-2)[Gal(a1-3)]Gal(b1-4)[Fuc(a1-3)]GlcNAc
# Summary of the method: as §1
# [18] = molecular target: Fuc(a1-2)[Gal(a1-4)]Gal(b1-4)GlcNAc
# Summary of the method: as §1
# [19] = molecular target: Fuc(a1-2)[GalNAc(a1-3)]Gal
# Summary of the method: as §1
# [20] = molecular target: Fuc(a1-2)[GalNAc(a1-3)]Gal(b1-3)GlcNAc
# Summary of the method: as §1
# [21] = molecular target: Fuc(a1-2)[GalNAc(a1-3)]Gal(b1-4)Glc
# Summary of the method: as §1
# [22] = molecular target: Fuc(a1-2)[GalNAc(a1-3)]Gal(b1-4)GlcNAc
# Summary of the method: as §1
# [23] = molecular target: Fuc(a1-2)[GalNAc(a1-3)]Gal(b1-4)[Fuc(a1-3)]GlcNAc
# Summary of the method: as §1
# [24] = molecular target: Fuc(a1-2)[GalNAc(a1-4)]Gal(b1-4)GlcNAc
# Summary of the method: as §1
# [25] = molecular target: Fuc(a1-2)[GalNAc(b1-3)]Gal
# Summary of the method: as §1
# Fuc(a1-3)GlcNAc = molecular target: Fuc(a1-3)GlcNAc
# Summary of the method: as §1
# [26] = molecular target: Fuc(a1-3)[Gal(b1-4)]Glc6S
# Summary of the method: as §1
# [27] = molecular target: Fuc(a1-3)[Gal(b1-4)]GlcNAc
# Summary of the method: as §1
# [28] = molecular target: Fuc(a1-3)[Gal(b1-4)]GlcNAc(b1-2)Man(a1-3)[Fuc(a1-3)[Gal(b1-4)]GlcNAc(b1-2)Man(a1-6)]Man(b1-4)GlcNAc(b1-4)GlcNAc
# Summary of the method: as §1
# [29] = molecular target: Fuc(a1-3)[Gal(b1-4)]GlcNAc(b1-2)Man(a1-6)[Gal(b1-4)GlcNAc(b1-2)Man(a1-3)]Man(b1-4)GlcNAc(b1-4)GlcNAc
# Summary of the method: as §1
# [30] = molecular target: Fuc(a1-3)[Gal(b1-4)]GlcNAc(b1-3)Gal(b1-3)[Fuc(a1-4)]GlcNAc
# Summary of the method: as §1
# [31] = molecular target: Fuc(a1-3)[Gal(b1-4)]GlcNAc(b1-4)Gal(b1-4)[Fuc(a1-3)]GlcNAc
# Summary of the method: as §1
# [32] = molecular target: Fuc(a1-3)[Gal(b1-4)]GlcNAc(b1-4)Gal(b1-4)[Fuc(a1-3)]GlcNAc(b1-4)Gal(b1-4)[Fuc(a1-3)]GlcNAc
# Summary of the method: as §1
# [33] = molecular target: Fuc(a1-3)[Gal(b1-4)]GlcNAc6S
# Summary of the method: as §1
# [34] = molecular target: Fuc(a1-3)[Gal3S(b1-4)]Glc6S
# Summary of the method: as §1
# [35] = molecular target: Fuc(a1-3)[Gal3S(b1-4)]GlcNAc
# Summary of the method: as §1
# [36] = molecular target: Fuc(a1-3)[Gal3S(b1-4)]GlcNAc6S
# Summary of the method: as §1
# [37] = molecular target: Fuc(a1-3)[GalNAc(b1-4)]GlcNAc
# Summary of the method: as §1
# Fuc(a1-4)GlcNAc = molecular target: Fuc(a1-4)GlcNAc
# Summary of the method: as §1
# Fuc(b1-3)GlcNAc = molecular target: Fuc(b1-3)GlcNAc
# Summary of the method: as §1
# Gal(a1-2)Gal = molecular target: Gal(a1-2)Gal
# Summary of the method: as §1
# Gal(a1-3)Gal = molecular target: Gal(a1-3)Gal
# Summary of the method: as §1
# Gal(a1-3)Gal(b1-3)GlcNAc = molecular target: Gal(a1-3)Gal(b1-3)GlcNAc
# Summary of the method: as §1
# Gal(a1-3)Gal(b1-4)Glc = molecular target: Gal(a1-3)Gal(b1-4)Glc
# Summary of the method: as §1
# Gal(a1-3)Gal(b1-4)GlcNAc = molecular target: Gal(a1-3)Gal(b1-4)GlcNAc
# Summary of the method: as §1
# [38] = molecular target: Gal(a1-3)Gal(b1-4)[Fuc(a1-3)]GlcNAc
# Summary of the method: as §1
# Gal(a1-3)GalNAc = molecular target: Gal(a1-3)GalNAc
# Summary of the method: as §1
# [39] = molecular target: Gal(a1-3)[Gal(a1-4)]Gal(b1-4)GlcNAc
# Summary of the method: as §1
# Gal(a1-4)Gal(b1-4)Glc = molecular target: Gal(a1-4)Gal(b1-4)Glc
# Summary of the method: as §1
# Gal(a1-4)Gal(b1-4)GlcNAc = molecular target: Gal(a1-4)Gal(b1-4)GlcNAc
# Summary of the method: as §1
# Gal(a1-4)GlcNAc = molecular target: Gal(a1-4)GlcNAc
# Summary of the method: as §1
# Gal(a1-6)Glc = molecular target: Gal(a1-6)Glc
# Summary of the method: as §1
binder,measurement,setting,value
B1,glycan array binding signal (z-score),Fuc(a1-2)Gal,-0.247
same,glycan array binding signal (z-score),Fuc(a1-2)Gal(b1-3)GalNAc,-0.079
same,glycan array binding signal (z-score),[1],-0.124
same,glycan array binding signal (z-score),[2],-0.037
same,glycan array binding signal (z-score),[3],-0.066
same,glycan array binding signal (z-score),Fuc(a1-2)Gal(b1-3)GlcNAc,-0.219
same,glycan array binding signal (z-score),[4],-0.272
same,glycan array binding signal (z-score),[5],-0.254
same,glycan array binding signal (z-score),Fuc(a1-2)Gal(b1-4)Glc,-0.178
same,glycan array binding signal (z-score),Fuc(a1-2)Gal(b1-4)Glc6S,-0.221
same,glycan array binding signal (z-score),Fuc(a1-2)Gal(b1-4)GlcNAc,-0.2
same,glycan array binding signal (z-score),[6],-0.248
same,glycan array binding signal (z-score),[7],-0.125
same,glycan array binding signal (z-score),[8],-0.178
same,glycan array binding signal (z-score),[9],-0.156
same,glycan array binding signal (z-score),[10],-0.186
same,glycan array binding signal (z-score),[11],-0.098
same,glycan array binding signal (z-score),Fuc(a1-2)Gal6S(b1-4)Glc,-0.254
same,glycan array binding signal (z-score),[12],-0.229
same,glycan array binding signal (z-score),[13],-0.208
same,glycan array binding signal (z-score),Fuc(a1-2)[Gal(a1-3)]Gal,1.3
same,glycan array binding signal (z-score),[14],-0.05
same,glycan array binding signal (z-score),[15],2.19
same,glycan array binding signal (z-score),[16],2.11
same,glycan array binding signal (z-score),[17],1.18
same,glycan array binding signal (z-score),[18],-0.007
same,glycan array binding signal (z-score),[19],4.81
same,glycan array binding signal (z-score),[20],0.125
same,glycan array binding signal (z-score),[21],6.66
same,glycan array binding signal (z-score),[22],8.52
same,glycan array binding signal (z-score),[23],5.47
same,glycan array binding signal (z-score),[24],-0.209
same,glycan array binding signal (z-score),[25],-0.204
same,glycan array binding signal (z-score),Fuc(a1-3)GlcNAc,-0.309
same,glycan array binding signal (z-score),[26],-0.141
same,glycan array binding signal (z-score),[27],-0.196
same,glycan array binding signal (z-score),[28],0.041
same,glycan array binding signal (z-score),[29],-0.101
same,glycan array binding signal (z-score),[30],-0.195
same,glycan array binding signal (z-score),[31],-0.105
same,glycan array binding signal (z-score),[32],-0.235
same,glycan array binding signal (z-score),[33],-0.222
same,glycan array binding signal (z-score),[34],-0.115
same,glycan array binding signal (z-score),[35],-0.126
same,glycan array binding signal (z-score),[36],-0.157
same,glycan array binding signal (z-score),[37],-0.188
same,glycan array binding signal (z-score),Fuc(a1-4)GlcNAc,-0.189
same,glycan array binding signal (z-score),Fuc(b1-3)GlcNAc,0.118
same,glycan array binding signal (z-score),Gal(a1-2)Gal,-0.078
same,glycan array binding signal (z-score),Gal(a1-3)Gal,-0.066
same,glycan array binding signal (z-score),Gal(a1-3)Gal(b1-3)GlcNAc,-0.253
same,glycan array binding signal (z-score),Gal(a1-3)Gal(b1-4)Glc,0.187
same,glycan array binding signal (z-score),Gal(a1-3)Gal(b1-4)GlcNAc,-0.104
same,glycan array binding signal (z-score),[38],-0.176
same,glycan array binding signal (z-score),Gal(a1-3)GalNAc,-0.163
same,glycan array binding signal (z-score),[39],-0.31
same,glycan array binding signal (z-score),Gal(a1-4)Gal(b1-4)Glc,-0.176
same,glycan array binding signal (z-score),Gal(a1-4)Gal(b1-4)GlcNAc,-0.235
same,glycan array binding signal (z-score),Gal(a1-4)GlcNAc,-0.286
same,glycan array binding signal (z-score),Gal(a1-6)Glc,-0.28
